Reference: ChEMBL document CHEMBL4888484, “Replenishing the malaria drug discovery pipeline: Screening and hit evaluation of the MMV Hit Generation Library 1 (HGL1) against asexual blood stage Plasmodium falciparum ,using a nano luciferase reporter read-out” (2022)
The whole screen tested about 150,000 compounds, of which about 540 (0.36%) showed an effect of 50% or more. The list shows a part of the results.

tested on: Plasmodium falciparum; test: Primary screen in NF54 nanoGlo assay, in single point, at 2uM, 72h; a lower Z score goes with more inhibition; assay type: functional, Erythrocyte; conditions: timepoint 72 hour

SMILES	% Inhibition	Z score
O=c1nc2n(c3ncccc13)CCCCC2	3%	-0.42
COc1cccc2cc(C(=O)N3CCC(COCc4ccccc4)CC3)oc12	-8%	1.11
O=C(Cc1ccsc1)Nc1nncs1	-11%	1.18
C[C@]12C(=O)N(Cc3ccncc3)CC(=O)N1CCc1c2[nH]c2ccccc12	-7%	0.86
C[C@@H](c1ccccc1)N(C)C(=O)NCCNC(=O)c1ccn[nH]1	-4%	0.49
CN(CCc1nccs1)S(=O)(=O)c1cnn(C)c1	-8%	0.97
O=C(c1ccc(N2CCCN(Cc3ccc(Cl)cc3)C2=O)cc1)N1CCCC1	-4%	0.68
CN(C)C1(CNC(=O)COc2cccc(C(N)=O)c2)CCCCCC1	-34%	3.95
Cn1cc([C@H]2NC(=O)CN2Cc2ccccc2)c(=O)n(C)c1=O	0%	0.02
CC(C)N(C)C(=O)c1ccc(Cl)c(NCCCO)c1	-8%	0.76
Cc1cc(NC(=O)CCn2ncc3cn(-c4ccccc4)nc3c2=O)no1	-23%	3.2
CCn1nccc1C(=O)N1Cc2cc(CN3CCCC3)ccc2OC[C@@H]1C	-1%	0.22
COc1ccccc1CC(=O)Nc1cncnc1	-21%	1.87
CC(C)c1nc(CCNc2cncc(C(=O)N(C)C)n2)no1	-7%	1.22
CC(C)OCCNC(=O)[C@@H]1CC[C@H](NC(=O)c2csc3c2CCCC3)C1	-19%	2.4
C1CC[C@H](CNC2CCC3(CC2)CC3)OC1	1%	-0.1
O=C(N[C@@H](CN1C(=O)COC1=O)c1ccccc1)c1ccsc1	-12%	1.92
Cc1ccc(-c2nc(-c3ccc(N4CCOCC4)cc3)no2)c(C)c1	-2%	0.29
O=C(NCCn1cccn1)[C@H]1[C@@H]2CN(Cc3ccc4c(c3)OCCO4)C[C@@H]21	-9%	1.83
O=S(=O)(NC[C@@]1(COc2cnccn2)C[C@@H](O)[C@@H](O)C1)c1ccc(F)cc1	1%	-0.19
COCC[C@H]1COCCN1C(=O)Cc1ccc2[nH]c(=O)[nH]c2c1	-2%	0.35
Cc1ccc(CN2CCC(CNC(=O)[C@H](C)n3c4ccccc4c4cnn(C)c(=O)c43)CC2)cc1	-18%	1.77

SMILES	% Inhibition	Z score
Cc1c(C(=O)O)nnn1-c1ccc2c(c1)CCC2	-12%	1.33
O=C(CC[C@H]1CCCO1)N1CC=C(c2c[nH]c3ccccc23)CC1	-9%	1.28
C[C@H]1CN(C(=O)c2ccc3occc3c2)C[C@]1(O)C1CC1	-23%	2.43
COC(=O)c1n[nH]c2c1CN(C(=O)c1cc(Cl)cn1C)CC2	6%	-1.02
C[C@@H](CCO)NCc1ccc(CN(C)C)c2c1OC(F)(F)O2	2%	-0.43
CCC(=O)N1CCCC[C@H]1c1nnc2n1CCN(S(=O)(=O)c1c(C)noc1C)C2	-3%	0.48
CN(Cc1nnc2n1CCC2)C(=O)CCOc1ccc(Br)cc1	-8%	1.55
O=C(Cc1cccs1)N1CCN(c2nnc3ccccn23)CC1	-26%	4.38
CCOCCN1CCN(c2cc(N3CCN(CCOCC)C(C)C3)ncn2)CC1C (stereo not given)	-9%	0.85
O=C(N1CCN(C2CC2)c2cc(Cl)ccc21)C1(n2cnnn2)CCOCC1	0%	-0.02
CN(C)CCN(C(=O)c1cccc(-n2cnnn2)c1)C1CCCC1	-5%	0.77
Cc1ccc(CCNC(=O)c2ccncc2)o1	-11%	1.45
COC1(C)CN(c2nc3c(N4CC(C)(OC)C4)ncnc3s2)C1	5%	-0.96
CCCC(=O)Nc1ccc(CN=C(N)NCCc2ccccn2)cc1	-2%	0.25
COC(C)c1nc(CN(C)C2Cc3ccccc3C2O)cs1 (stereo not given)	2%	-0.32
COCCc1noc([C@@H]2CCCN2CC(=O)N2CCCc3cc(C)ccc32)n1	0%	-0.03
CC1CCN(CC(=O)Nc2cccc3nonc23)CC1	-1%	0.08
Cc1nnc(-c2ccc(S(=O)(=O)N3CCc4ccccc4C3)s2)o1	-15%	2.93
Cc1cc(S(=O)(=O)N2CCOC[C@@]23CCOC3)ccc1C#N	4%	-0.54
CCOc1ccc(NC(=O)N[C@H]2CCN(c3ccc(C(F)(F)F)cn3)C2)cc1	-6%	1.13
CCS(=O)(=O)CC(C)NC(C)c1c(F)cccc1F (stereo not given)	-16%	2.96
CCOc1cccc(-c2cc(-c3c(C)nn(C)c3C)nc(CC(=O)NC)n2)c1	-1%	0.12

SMILES	% Inhibition	Z score
Cc1csc(CNC(=O)[C@H]2CCC(=O)N(C3CCCCCC3)C2)n1	1%	-0.17
CCc1csc(NC(=O)c2ccc(-c3ccco3)[nH]c2=O)n1	9%	-1.16
CCC(=O)N1c2ccc(S(=O)(=O)N3CCCCC3)cc2C[C@H]1C(=O)NC1CCCCCC1	-7%	0.9
Cc1ccc2[nH]c3c(c2c1)C[C@@H](N1C(=O)CN(CC(C)C)C1=O)CC3	-3%	0.39
C[C@H]1CC(=O)N(CCC2CCCCC2)c2ccccc2N1	-1%	0.19
CC(=O)c1cccc(NC(=O)N2CCC3(CCC3)C2)c1	-6%	1.19
CC1NC(=O)N(Cc2ccccn2)C(=O)C1C (stereo not given)	-4%	0.6
CC(C)NC(=O)N[C@@H]1CC[C@H]2CCOc3ccccc3C(=O)N3CCN(Cc4cccc(Cl)c4)C[C@H]3C(=O)NC[C@H]1O2	27%	-3.1
CN(Cc1cccc(OC(F)F)c1)Cc1nnc2n1CCNC2=O	0%	0.03
Cc1c(C(=O)NCc2cccnc2N2CCN(C)CC2)n(C)c2ccccc12	5%	-0.98
COc1ccc(C(=O)N(Cc2ccccc2)Cc2cc(NS(=O)(=O)c3ccc(OC)cc3)ccc2N(C)C)cc1	-7%	1.43
CCC[C@H](C)NS(=O)(=O)Cc1noc(C2CC2)n1	-10%	1.9
CC[C@H]1CN(C(=O)NCCc2csc(C)n2)CCO1	-8%	0.96
Cc1cc(NC(=O)NC[C@@H]2Cc3ccccc3CO2)nn1C(C)C1CC1 (stereo not given in full)	1%	-0.11
CCCn1c(C)nnc1CN[C@@H](C)c1c(F)cccc1Cl	-16%	2.42
Cc1nc(C(=O)NCc2ccco2)co1	-5%	0.83
CN(CC(F)F)C(=O)Nc1nncs1	-13%	1.8
Cn1ccc(NC(=O)[C@@]2(C)CC2(Cl)Cl)n1	-10%	1.79
COCC(=O)N1CC(C(=O)NCCN2CCCC2)CCC1c1ccc(F)cc1 (stereo not given)	-3%	0.42
Cc1cc(C(=O)N(CC(=O)N2CCn3cccc3[C@H]2c2ccccc2F)C(C)(C)C)ccc1F	-14%	1.31
CCN(C(=O)c1cccc(=O)n1C)[C@H]1CCN(Cc2ccccc2)C1	-9%	1.48
Cn1cccc1CN1CCC(CC2CC2)(NS(C)(=O)=O)CC1	-12%	2.27

SMILES	% Inhibition	Z score
Cc1cc(OCc2csc([C@@H]3CCCO3)n2)nn1C	-11%	1.46
O=C(Nc1ccc(S(=O)(=O)Nc2nccs2)cc1)[C@H]1CCCN(c2cc(C3CC3)ncn2)C1	11%	-2.06
Cc1nnsc1CN(C)C(=O)CCN1CCCCO1	-14%	2.73
COc1ccccc1-c1nn(Cc2ccccc2)cc1[C@@H]1NC(=O)c2ccccc2N1	-35%	4.14
CC(=O)N[C@H](CC1CCC1)C(=O)NCC(C)(C)c1ncccc1C	-12%	1.48
Cc1csc(CNC(=O)Cc2csc(C(C)C)n2)n1	-18%	2.47
CCCOC[C@H]1CCN(Cc2noc(CC(C)C)n2)C1	-5%	0.49
Cc1cccnc1-n1nc(-c2ccccc2)nc1Cn1cc(C)c(=O)[nH]c1=O	-10%	1.41
Cn1cccc1-c1n[nH]c(C2CCCCC2)n1	-12%	1.78
O=C(Nc1cc(Cl)cc(Cl)c1)C(=O)NC1CCCC1	6%	-0.72
O=c1[nH]c(=O)n(-c2ncnc3c2cnn3-c2ccccc2)cc1Cl	38%	-5.17
CCc1nc(NCc2nccn2CC)c2ccsc2n1	4%	-0.68
CCN1C[C@H](CN(C)CC(=O)N(C)Cc2ccsc2)Oc2ccccc21	-7%	1.06
COc1ccc2[nH]c3c(c2c1)CCN(C(=O)c1ccc(C)c(C)c1)[C@@H]3c1ccccc1OC	84%	-11.27
COc1cccc(CNCc2ccc(F)c(CO)c2)n1	4%	-0.5
CCn1nccc1C(=O)Nc1nnc(-c2ccco2)o1	-6%	1.08
CCCn1nnn(-c2cc(N(S(=O)(=O)CC)S(=O)(=O)CC)c(Cl)cc2F)c1=O	-15%	1.78
CN1CCOc2ccc(C(=O)N3CC[C@H](CCO)C3)cc21	-4%	0.59
COCC(=O)N[C@@H]1CN(C(=O)c2ccoc2C(C)C)C[C@H]1c1nccn1C	-9%	1.51
